The text below walks through data of the supplement of paper PMC7266297.

Where a name gives a salt, the structure may show the parent alone. Some of the results follow. Repeats are few or missing, and single values can be far off.

One experiment relates to KB-3-1. The experiment in a line: growth inhibition relative to DMSO control (SRB); cervical cancer cells: KB-3-1 is the parent and KB-V1 overexpresses MDR1; SRB is the sulforhodamine B stain; higher = more growth inhibition. As to conditions: 1 µM; 72 h.
A further experiment concerns KB-V1. Described as above. As to conditions: 1 µM; 72 h.
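Also: Read-out is SRB optical density at 490 nm, with the control being wells given 0.5% DMSO vehicle, and compound added one day after cells were plated.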

Regarding `CCCC(C)NC(=O)c1ccc(Cl)c(Cl)c1` (configuration not stated), the growth inhibition in the experiment on KB-3-1 turned out to be 29.4%; in the experiment with KB-V1, 3.09%.

Turning to `CN/C(=N\CCSCc1nc[nH]c1C)NC#N` [Cimetidine], the values for the growth inhibition in the experiment with KB-3-1 and in the experiment with KB-V1 were 42.4% and 23.3%, respectively.

As to `CS(=O)(=O)N1CCN(Cc2cc3nc(-c4cccc5[nH]ncc45)nc(N4CCOCC4)c3s2)CC1`, the figures for the growth inhibition with KB-3-1 and with KB-V1 were 74.5% and 64.2%, respectively.

`CCN(CC)CC#CCOC(=O)C(O)(c1ccccc1)C1CCCCC1` (configuration not stated) [Oxybutynin chloride]: the values for the growth inhibition in the experiment on KB-3-1 and with KB-V1 were below 0% and 20.8%, respectively.

With `CN1CCN(CCCN2c3ccccc3Sc3ccc(C(F)(F)F)cc32)CC1` [Trifluoperazine 2HCl], the growth inhibition in the experiment on KB-3-1 was below 0%; in the experiment on KB-V1 it was 11%.

Regarding `Cc1cc2c(s1)Nc1ccccc1N=C2N1CCN(C)CC1` [Olanzapine], the growth inhibition worked out at 28.7% in the experiment with KB-3-1 and 15.2% in the experiment with KB-V1.

For the compound `Cc1ccc(O)c([C@H](CCN(C(C)C)C(C)C)c2ccccc2)c1` [Tolterodine tartrate], the growth inhibition was 26% in the experiment on KB-3-1 and 5.32% in the experiment on KB-V1.

Regarding `C[C@H](Nc1ncnc2nc[nH]c12)c1cc2cccc(Cl)c2c(=O)n1-c1ccccc1`, the growth inhibition in the experiment with KB-3-1 amounted to 10.3%; with KB-V1 it was 25.4%.

In the case of `Cc1cc2c(cc1CC(=O)c1sccc1S(=O)(=O)Nc1onc(C)c1Cl)OCO2` [Sitaxentan sodium], the results for the growth inhibition in the experiment with KB-3-1 and in the experiment on KB-V1 were below 0% and 3.17%, respectively.

Turning to `CN1CC[C@H](c2c(O)cc(O)c3c(=O)cc(-c4ccccc4Cl)oc23)[C@H](O)C1` [Flavopiridol HCl], the growth inhibition came to 100% in the experiment with KB-3-1 and 98% with KB-V1.

As to `COc1ccc(S(=O)(=O)N(C(C)=O)c2ccccc2/C=C/c2cc[n+]([O-])cc2)cc1`, the values for the growth inhibition in the experiment on KB-3-1 and with KB-V1 were 97.4% and 73%, respectively.

As to `CC(C)(C)c1cc(C(C)(C)C)c(NC(=O)c2c[nH]c3ccccc3c2=O)cc1O` [Ivacaftor (VX-770)], the growth inhibition with KB-3-1 stood at 38%; with KB-V1, 52.6%.

As for `CCO[C@@H]1OC(=O)C[C@@H]1NC(=O)[C@@H]1CCCN1C(=O)[C@@H](NC(=O)c1ccc(N)c(Cl)c1)C(C)(C)C`, the growth inhibition in the experiment with KB-3-1 and in the experiment on KB-V1 was below 0% in each case.

For the compound `Cc1cc(-c2ccc(CC(=O)Nc3ccc(-c4cccnc4)cc3)cc2)ccn1`, the growth inhibition amounted to 6.41% in the experiment with KB-3-1 and 38.7% in the experiment on KB-V1.

Take `CCn1c2ccccc2c2cc(Nc3ccnc(NCCCN4CCOCC4)n3)ccc21`: the results for the growth inhibition in the experiment on KB-3-1 and in the experiment with KB-V1 were 2.29% and below 0%, respectively.

`COC1=CC(c2cc3ccccc3[nH]2)=N/C1=C\c1[nH]c(C)cc1C` [Obatoclax Mesylate (GX15-070)]: the growth inhibition in the experiment on KB-3-1 stood at 93.6%; in the experiment on KB-V1, 95.9%.

As for `CN1[C@@H]2CC[C@H]1C[C@@H](OC(=O)c1c[nH]c3ccccc13)C2` [Tropisetron], the growth inhibition in the experiment on KB-3-1 came out at 48.3%; with KB-V1, 22.8%.

As for `c1ccc(-c2nn3c(c2-c2ccnc4cc(OCCN5CCOCC5)ccc24)CCC3)nc1`, the growth inhibition with KB-3-1 and in the experiment on KB-V1 was below 0% in each case.

Consider `CC(=O)Nc1ccc(C(=O)Nc2ccccc2N)cc1` [CI994 (Tacedinaline)], for which the figures for the growth inhibition in the experiment on KB-3-1 and in the experiment on KB-V1 were 4.51% and 33.8%, respectively.

`Nc1ccc(-c2ccc3ncc4ccc(=O)n(-c5cccc(C(F)(F)F)c5)c4c3c2)cn1` [Torin 2]: the growth inhibition is 91.4% with KB-3-1 and 93.6% in the experiment on KB-V1.

For `O=c1cc(-c2ccccc2)oc2cc(O)c(O)c(O)c12` [Baicalein], the growth inhibition with KB-3-1 is below 0%; in the experiment with KB-V1, 40.2%.

Take `N[C@@]1(C(=O)O)CS(=O)(=O)[C@H]2[C@H](C(=O)O)[C@H]21`: the growth inhibition is 36.2% with KB-3-1 and 14.5% with KB-V1.

For the compound `O=C1NC(=O)/C(=C/c2cccc(C(F)(F)F)c2)S1`, the growth inhibition in the experiment with KB-3-1 was found to be 45.3%; in the experiment on KB-V1, 5.56%.

As for `NC(N)=Nc1nc(CSCC/C(N)=N/S(N)(=O)=O)cs1` [Famotidine], the growth inhibition in the experiment with KB-3-1 stood at 28.9%; with KB-V1, 21.8%.

In the case of `Cc1[nH]c(/C=C2\C(=O)Nc3ccc(S(=O)(=O)Cc4c(Cl)cccc4Cl)cc32)c(C)c1C(=O)N1CCC[C@@H]1CN1CCCC1`, the growth inhibition in the experiment on KB-3-1 was determined as 33.2%; with KB-V1, 18.5%.

As to `O=C(Nc1ccccc1)N1CCN(c2nc(-c3ccccc3)ns2)CC1`, the growth inhibition is 8.81% in the experiment with KB-3-1 and 40.3% in the experiment on KB-V1.

For the compound `Cc1cc(C(C)Nc2ccccc2)c2nc(N3CCOCC3)cc(=O)n2c1` (configuration not stated), the growth inhibition came to 22.8% in the experiment on KB-3-1 and 36.9% in the experiment on KB-V1.

On to `COC1=C2C[C@@H](C)C[C@H](OC)[C@H](O)[C@@H](C)/C=C(\C)[C@H](OC(N)=O)[C@@H](OC)/C=C\C=C(/C)C(=O)NC(=CC1=O)C2=O` [Geldanamycin], for which the growth inhibition in the experiment with KB-3-1 came to 55.6%; in the experiment on KB-V1, 62.2%.

As to `CC(C)(F)C[C@H](N[C@@H](c1ccc(-c2ccc(S(C)(=O)=O)cc2)cc1)C(F)(F)F)C(=O)NC1(C#N)CC1` [Odanacatib (MK-0822)], the growth inhibition in the experiment on KB-3-1 was 53%; in the experiment with KB-V1 it was 31.5%.

`Cc1ccc(S(=O)(=O)c2ccc([N+](=O)[O-])o2)cc1`: the growth inhibition in the experiment with KB-3-1 and with KB-V1 was below 0% each time.

As to `NC(=O)c1cnc(N[C@@H]2CCCC[C@@H]2N)nc1Nc1cccc(-n2nccn2)c1`, the figures for the growth inhibition in the experiment on KB-3-1 and with KB-V1 were 72.4% and 3.09%, respectively.

Turning to `O=C(NC[C@H]1CN(c2ccc(N3CCOCC3=O)cc2)C(=O)O1)c1ccc(Cl)s1` [Rivaroxaban], the growth inhibition was below 0% in the experiment on KB-3-1 and 18.5% with KB-V1.

As for `c1cnc2cc3c(cc2n1)[C@@H]1CNC[C@H]3C1` [Varenicline Tartrate], the growth inhibition with KB-3-1 was determined as 11.8%; in the experiment on KB-V1, 32.3%.

Consider `O=C(NC1CCOCC1)c1ccc(-c2cc(-c3c[nH]nc3-c3ccccn3)ccn2)cc1`, for which the growth inhibition is below 0% with KB-3-1 and 10.9% in the experiment on KB-V1.

As for `COC(=O)c1ccc2c(c1)NC(=O)/C2=C(\Nc1ccc(N(C)C(=O)CN2CCN(C)CC2)cc1)c1ccccc1` [Nintedanib (BIBF 1120)], the results for the growth inhibition in the experiment on KB-3-1 and in the experiment on KB-V1 were 36% and 27.1%, respectively.

On to `CC(C)C[C@H](NC(=O)[C@@H](NC(=O)c1cccc(-c2ccccc2)n1)[C@@H](C)O)B(O)O`, for which the growth inhibition with KB-3-1 came out at 72.5%; with KB-V1, 52%.
